In PubChem BioAssay (Tox21):
Where “and” joins values, the source holds several entries; their conditions need not be identical. Equal values may be shown once. Calls of active or inactive are those of the source. Unless noted, the call rests on the fitted dose curve; in most records, active means well fitted curve in the direction sought with a large enough effect in the repeat runs; inconclusive means weak or mixed curves; inactive means no such curve, though single readings can be large; an effect the other way counts as inactive or inconclusive.

Tests used:
[1] = qHTS assay for identifying genotoxic compounds that show differential cytotoxicity against isogenic chicken DT40 cell lines with known DNA damage response pathways - Rev3 mutant cell line (AID 743014); conditions: chicken DT40 Rev3-/- viability, CellTiter-Glo, 40 h; activity, negative = cytotoxicity: at 68.4 µM (top of the series) unless noted; further: nearly all actives have a fitted effect of over 55% in size; further: potency means the concentration at half of the fitted maximal effect
[2] = biological target: Androgen receptor (Homo sapiens) (UniProt P10275); assay: qHTS assay to identify small molecule antagonists of the androgen receptor (AR) signaling pathway (AID 743035; active means well fitted inhibition curve with a large enough effect in the signal ratio in the repeat runs, not every such curve was filed as active; inconclusive means weak or mixed curves, or effect the other way; inactive means no such curve, though single readings can be large or run the other way; the % refers to the signal ratio; further: on the % scale 0 is the no-effect control and ±100 the full control effect); conditions: HEK293 AR-UAS-bla, R1881-stimulated, beta-lactamase FRET, 16 h; activity change, negative = inhibition: at 58.5 µM (top of the series) unless noted
Chain of UniProt P10275 (P10275 whole entry, looked up): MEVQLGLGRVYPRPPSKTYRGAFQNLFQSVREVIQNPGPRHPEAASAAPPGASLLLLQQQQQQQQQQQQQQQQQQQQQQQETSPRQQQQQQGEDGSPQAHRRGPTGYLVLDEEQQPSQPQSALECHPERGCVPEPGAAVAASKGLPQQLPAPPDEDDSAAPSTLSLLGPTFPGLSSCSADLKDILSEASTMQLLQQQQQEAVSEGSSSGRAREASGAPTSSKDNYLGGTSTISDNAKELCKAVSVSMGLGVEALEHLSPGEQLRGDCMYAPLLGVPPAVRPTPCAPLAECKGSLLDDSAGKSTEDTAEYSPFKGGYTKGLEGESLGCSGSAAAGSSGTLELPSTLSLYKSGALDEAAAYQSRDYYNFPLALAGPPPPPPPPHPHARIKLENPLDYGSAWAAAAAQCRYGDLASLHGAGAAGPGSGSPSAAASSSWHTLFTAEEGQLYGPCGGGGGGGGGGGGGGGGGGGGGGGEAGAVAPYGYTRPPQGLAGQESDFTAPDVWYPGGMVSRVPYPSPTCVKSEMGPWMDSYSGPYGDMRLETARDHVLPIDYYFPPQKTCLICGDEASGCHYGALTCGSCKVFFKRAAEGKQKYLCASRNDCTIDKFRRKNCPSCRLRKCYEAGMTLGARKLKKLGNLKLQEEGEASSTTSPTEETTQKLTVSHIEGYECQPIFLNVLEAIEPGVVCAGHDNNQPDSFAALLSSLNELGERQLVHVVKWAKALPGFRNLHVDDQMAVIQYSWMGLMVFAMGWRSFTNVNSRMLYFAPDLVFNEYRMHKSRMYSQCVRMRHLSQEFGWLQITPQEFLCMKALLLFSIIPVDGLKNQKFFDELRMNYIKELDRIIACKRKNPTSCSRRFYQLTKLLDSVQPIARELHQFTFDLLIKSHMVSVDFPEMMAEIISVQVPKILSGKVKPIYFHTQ
In short: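 Quantitative HTS of the Tox21 10K library used HEK293 AR-UAS-bla cells stimulated with R1881 alongside compound for 16 h at 37C, followed by beta-lactamase FRET detection (LiveBLAzer B/G, 2 h, RT).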

[3] = biological target: Androgen receptor (Homo sapiens) (UniProt P10275); assay: qHTS assay to identify small molecule agonists of the androgen receptor (AR) signaling pathway (AID 743036; active means well fitted activation curve with a large enough effect in the signal ratio in the repeat runs, with a control signal flat, not every such curve was filed as active; inconclusive means weak or mixed curves, or effect the other way; inactive means no such curve, though single readings can be large or run the other way; the % refers to the signal ratio; further: on the % scale 0 is the no-effect control and ±100 the full control effect); conditions: HEK293 AR-UAS-bla GripTite, beta-lactamase FRET ratio, 16 h; activation: at 62.4 µM (top of the series) unless noted
In short: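 Agonist activity was scored by beta-lactamase reporter fluorescence in stably transfected HEK293 cells exposed to compounds for 16 h at 37C and 5% CO2. Substrate loading took 2 h at room temperature.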

[4] = qHTS assay to identify small molecule antagonists of the thyroid receptor (TR) signaling pathway (AID 743065); further: potency means the concentration at half of the fitted maximal effect; nearly all actives have a fitted effect of over 55% in size
In short: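 GH3.TRE-Luc rat pituitary cells carrying two TR response elements driving luciferase were plated for 4 h, given compound plus 1 nM T3 (final), and incubated 23.5 h at 37 C. ONE-Glo luminescence measured reporter inhibition; CellTiter-Fluor fluorescence tracked cytotoxicity.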

[5] = biological target: Estrogen receptor (Homo sapiens) (UniProt P03372); assay: qHTS assay to identify small molecule antagonists of the estrogen receptor alpha (ER-alpha) signaling pathway (AID 743069; active means well fitted curve in the direction sought with a large enough effect in the signal ratio in the repeat runs, not every such curve was filed as active; inconclusive means weak or mixed curves, or effect the other way; inactive means no such curve, though single readings can be large or run the other way; the % refers to the signal ratio; further: potency means the concentration at half of the fitted maximal effect); conditions: HEK293 ER-alpha-UAS-bla, beta-lactamase ratio, antagonist mode; activity, negative = inhibition: at 69.4 µM (top of the series) unless noted
Chain of UniProt P03372 (P03372 whole entry, looked up): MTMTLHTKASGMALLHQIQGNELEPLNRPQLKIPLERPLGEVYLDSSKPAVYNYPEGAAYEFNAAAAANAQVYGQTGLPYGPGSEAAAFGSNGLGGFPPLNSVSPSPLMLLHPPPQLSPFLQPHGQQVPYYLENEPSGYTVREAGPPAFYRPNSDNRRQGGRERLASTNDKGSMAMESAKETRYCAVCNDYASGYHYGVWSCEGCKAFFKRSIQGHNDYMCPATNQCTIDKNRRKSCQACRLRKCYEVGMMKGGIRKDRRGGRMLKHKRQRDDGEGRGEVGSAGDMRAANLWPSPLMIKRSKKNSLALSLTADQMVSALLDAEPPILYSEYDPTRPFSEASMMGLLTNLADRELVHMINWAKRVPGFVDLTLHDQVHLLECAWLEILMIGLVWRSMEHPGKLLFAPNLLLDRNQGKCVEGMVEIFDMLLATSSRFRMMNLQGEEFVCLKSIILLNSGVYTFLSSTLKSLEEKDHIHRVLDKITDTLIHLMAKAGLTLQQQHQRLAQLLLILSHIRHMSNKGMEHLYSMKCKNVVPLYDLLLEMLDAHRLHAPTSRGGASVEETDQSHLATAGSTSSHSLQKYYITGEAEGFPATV
In short: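 A 17beta-estradiol challenge was applied right after compound transfer to ER-alpha-UAS-bla HEK293 cells previously kept in charcoal-stripped serum. Plates stood 18 hr at 37C and 5% CO2; fluorescence was read following 2 hr FRET substrate loading at room temperature.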

[6] = biological target: Estrogen receptor (Homo sapiens) (UniProt P03372); assay: qHTS assay to identify small molecule agonists of the estrogen receptor alpha (ER-alpha) signaling pathway (AID 743075; calls by dose curve;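 further: HEK293 GripTite cells with ER-alpha and UAS-driven beta-lactamase reporter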; further: potency means the concentration at half of the fitted maximal effect; on activation: on the % scale 0 is the no-effect control and ±100 the full control effect)
[7] = biological target: Estrogen receptor (Homo sapiens) (UniProt P03372); assay: qHTS assay to identify small molecule agonists of the estrogen receptor alpha (ER-alpha) signaling pathway using the BG1 cell line (AID 743079); conditions: BG1Luc4E2 cells, ERE-luciferase agonist, 22 h; activation: at 70.3 µM (top of the series) unless noted; further: nearly all actives have a fitted effect of over 20% in size; further: potency means the concentration at half of the fitted maximal effect
[8] = qHTS assay to identify small molecule antagonists of the estrogen receptor alpha (ER-alpha) signaling pathway using the BG1 cell line (AID 743080; calls by dose curve;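 further: BG1 cells stimulated with 17beta-estradiol alongside compound; nearly all actives have a fitted effect of over 25% in size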; further: potency means the concentration at half of the fitted maximal effect); conditions: BG1Luc4E2 ERE-luciferase antagonist mode, luminescence; activity change, negative = inhibition: at 70.3 µM (top of the series) unless noted
In short: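 Seeding, 24 h rest, compound transfer from DMSO, 17beta-estradiol addition, 21.5 h incubation, CellTiter-Fluor (30 min, 37 C), then ONE-Glo (30 min, room temperature): this sequence was run on BG1-Luc-4E2 reporter cells.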

Aromatase (Homo sapiens) = Aromatase (Homo sapiens) (UniProt P11511); assay: qHTS assay to identify aromatase inhibitors (AID 743083); further: nearly all actives have a fitted effect of over 55% in size; further: potency means the concentration at half of the fitted maximal effect
Chain of UniProt P11511 (P11511 whole entry, looked up): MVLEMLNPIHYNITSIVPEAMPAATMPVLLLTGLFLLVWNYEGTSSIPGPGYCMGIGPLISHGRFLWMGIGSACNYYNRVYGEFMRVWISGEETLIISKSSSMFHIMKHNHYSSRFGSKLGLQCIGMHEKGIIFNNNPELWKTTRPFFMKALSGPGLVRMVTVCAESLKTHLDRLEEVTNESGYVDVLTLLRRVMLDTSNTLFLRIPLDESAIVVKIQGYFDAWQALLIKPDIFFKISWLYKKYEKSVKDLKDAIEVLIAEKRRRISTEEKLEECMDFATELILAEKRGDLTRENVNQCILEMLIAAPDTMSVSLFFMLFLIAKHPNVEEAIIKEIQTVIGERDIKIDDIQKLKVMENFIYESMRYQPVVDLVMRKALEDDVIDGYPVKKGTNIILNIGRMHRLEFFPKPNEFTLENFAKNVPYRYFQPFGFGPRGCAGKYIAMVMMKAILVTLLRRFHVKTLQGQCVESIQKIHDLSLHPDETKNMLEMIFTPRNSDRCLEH

[9] = qHTS assay to identify aromatase inhibitors - cell viability counter screen (AID 743084); conditions: MCF-7 aro ERE viability, CellTiter-Fluor, 24 h; activity change, negative = cytotoxicity: at 70.3 µM (top of the series);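 further: cells stimulated with testosterone during compound exposure; potency means the concentration at half of the fitted maximal effect; nearly all actives have a fitted effect of over 55% in size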
[10] = qHTS assay to identify small molecule antagonists of the androgen receptor (AR) signaling pathway - cell viability counter screen (AID 743033; further: on the % scale 0 is the no-effect control and ±100 the full control effect; nearly all actives have a fitted effect of over 45% in size); conditions: AR-bla HEK293 viability, CellTiter-Glo luminescence, 16 h; activity change, negative = cytotoxicity: at 58.5 µM (top of the series)
[11] = qHTS assay to identify small molecule antagonists of the thyroid receptor (TR) signaling pathway - cell viability counter screen (AID 743064); conditions: GH3.TRE-Luc viability, CellTiter-Fluor, 24 h; activity change, negative = cytotoxic: at 70.3 µM (top of the series) unless noted; further: nearly all actives have a fitted effect of over 50% in size; further: potency means the concentration at half of the fitted maximal effect
In short: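 Same-well viability check: GH3.TRE-Luc cells stimulated with 1 nM T3 alongside test compound for 23.5 h, followed by CellTiter-Fluor fluorescence.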

[12] = qHTS assay to identify small molecule antagonists of the estrogen receptor alpha (ER-alpha) signaling pathway - cell viability counter screen (AID 743074; calls by dose curve;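 further: HEK293 cells carrying ER-alpha-UAS-bla reporter stimulated with 17beta-estradiol; nearly all actives have a fitted effect of over 45% in size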; further: potency means the concentration at half of the fitted maximal effect)
[13] = qHTS assay to identify small molecule antagonists of the estrogen receptor alpha (ER-alpha) signaling pathway using the BG1 cell line - cell viability counter screen (AID 743081);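 further: compound given together with 17beta-estradiol as the ER stimulus; potency means the concentration at half of the fitted maximal effect; nearly all actives have a fitted effect of over 45% in size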
[14] = qHTS assay to identify small molecule antagonists of the androgen receptor (AR) signaling pathway using the MDA cell line - cell viability counter screen (AID 743041; further: nearly all actives have a fitted effect of over 45% in size; further: potency means the concentration at half of the fitted maximal effect); conditions: MDA-kb2 viability, CellTiter-Fluor, 16 h, cells co-treated with R1881 androgen agonist; viability change, negative = cytotoxic: at 70.3 µM (top of the series) unless noted
In short: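 In this qHTS counter assay, fluorescence intensity after CellTiter-Fluor addition indicated viability of MDA-kb2 AR-luc cells given compounds and R1881 for 16 h at 37C.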

[15] = tested on: thyroid hormone receptor (rat, GH3 cells); assay: qHTS assay to identify small molecule agonists of the thyroid receptor (TR) signaling pathway (AID 743066; calls by dose curve; further: on the % scale 0 is the no-effect control and ±100 the full control effect); conditions: GH3.TRE-Luc cells, TR agonist luciferase, 24 h; activation: at 83.9 µM (top of the series) unless noted
Tags describe the fitted curve by direction and shape or compound fluorescence and quenching.

## C=CC(=O)OCCOC(=O)C=C
[1]
  Potency: active: 7.7 µM
[2]
  Potency: inactive
[3]
  activation: inconclusive: 37.9%
[4]
  Potency: active: 38.6 µM
[5]
  Potency: inconclusive: 15.5 µM [falling, partial curve, poor fit]
[6]
  Potency: active: 17.4 µM [inconclusive]
[7]
  Potency: active: 1.72 µM
[8]
  Potency: inconclusive: 6.11 µM [rising, full curve]
Aromatase (Homo sapiens)
  Potency: inconclusive: 68.6 µM [inhibitor, single point]
[9]
  Potency: active: 54.5 µM

## C[C@H](CCC(=O)O)[C@H]1CC[C@H]2[C@@H]3[C@H](O)C[C@@H]4C[C@H](O)CC[C@]4(C)[C@H]3C[C@H](O)[C@]12C
[1]
  Potency: inconclusive: 11.9 µM [rising, full curve, poor fit]
[10]
  Potency: inactive
[11]
  Potency: inconclusive: 13.3 µM [rising, single point]
[12]
  Potency: inconclusive: 1.34 µM [rising, partial curve, poor fit]
[6]
  Potency: inactive
[13]
  Potency: inconclusive: 7.5 µM [rising, single point]

## FC(F)(F)C(F)(F)C(F)(F)C(F)(F)CCI
[1]
  Potency: inconclusive: 14 µM [cytotoxic, single point]
[11]
  Potency: inactive
[7]
  Potency: active: 27.9 µM
[8]
  Potency: inactive

## CCCCCc1ccco1
[1]
  Potency: active: 44.7 µM
[11]
  Potency: inconclusive: 50.1 µM [cytotoxic, single point]
[4]
  Potency: inconclusive: 44.7 µM [inhibitor, single point]
[12]
  Potency: inactive

## CCCCC(CC)COC(=O)CCCCCCCC(=O)OCC(CC)CCCC (stereo unspecified)
[1]
  Potency: inconclusive: 38.6 µM [cytotoxic, partial curve, poor fit]
[11]
  Potency: inactive

## Nc1ccc2cc(S(=O)(=O)O)cc(O)c2c1N=Nc1ccccc1C(F)(F)F
[1]
  Potency: inconclusive: 30.6 µM [cytotoxic, partial curve, poor fit]
[14]
  Potency: inconclusive: 54.5 µM [cytotoxic, single point]
[11]
  Potency: inconclusive: 68.6 µM [cytotoxic]
[4]
  Potency: inconclusive: 54.5 µM [inhibitor, partial curve]
[13]
  Potency: inconclusive: 54.5 µM [cytotoxic, partial curve]

## c1cc[c]([Bi]([c]2ccccc2)[c]2ccccc2)cc1
[1]
  Potency: inconclusive: 68.6 µM [cytotoxic, single point]
[14]
  viability change, negative = cytotoxic: inconclusive: 11.8%
[11]
  Potency: inconclusive: 68.6 µM [cytotoxic, single point]
[5]
  Potency: inactive
[7]
  Potency: active: 21.7 µM

## Nc1ccc(NCCO)c([N+](=O)[O-])c1
[1]
  Potency: inconclusive: 54.5 µM [cytotoxic, partial curve]
[14]
  Potency: inconclusive: 54.5 µM [cytotoxic, partial curve, poor fit]
[11]
  Potency: active: 54.5 µM
[4]
  Potency: inconclusive: 68.6 µM [inhibitor, partial curve, poor fit]
[13]
  Potency: inconclusive: 27.3 µM [cytotoxic, partial curve]
[9]
  Potency: inconclusive: 48.6 µM [cytotoxic]

## O=C(O)c1ccc2cc(C(=O)O)ccc2c1
[1]
  Potency: inactive
[11]
  Potency: inactive
[5]
  Potency: inactive
[8]
  Potency: inactive

## CC[C@@H](N)CO
[1]
  Potency: inactive
[14]
  Potency: inactive
[11]
  Potency: inconclusive: 64.8 µM [rising, partial curve]

## CC(C)C[C@@H](N)C(=O)O
[1]
  Potency: inactive
[11]
  Potency: inactive
Aromatase (Homo sapiens)
  Potency: inactive

## CC(=O)S[C@@H]1CC2=CC(=O)CC[C@]2(C)[C@H]2CC[C@@]3(C)[C@@H](CC[C@@]34CCC(=O)O4)[C@H]12
[1]
  Potency: active: 9.44 µM and active: 6.11 µM
[11]
  Potency: inconclusive: 15 µM [cytotoxic, partial curve, poor fit]
[5]
  Potency: inconclusive: 7.56 µM [fluorescent, partial curve, poor fit] and active: 12.3 µM [inconclusive]
[12]
  Potency: inconclusive: 54.9 µM [cytotoxic, partial curve, poor fit]
[7]
  Potency: inactive
Aromatase (Homo sapiens)
  Potency: active: 26.6 µM and active: 27.3 µM
[9]
  Potency: inconclusive: 68.6 µM [cytotoxic, single point]

## Cc1cc(C(=O)O)ccc1[N+](=O)[O-]
[1]
  Potency: inconclusive: 54.6 µM [rising, partial curve, poor fit]
[5]
  Potency: inconclusive: 39 µM [activator, partial curve]

## CC(CN(C)C)C(C)(O)Cc1ccc(Cl)cc1 (stereo unspecified)
[1]
  Potency: inconclusive: 6.68 µM [cytotoxic, full curve]
[3]
  Potency: inactive
[11]
  Potency: inconclusive: 33.5 µM [cytotoxic, single point]
[13]
  Potency: inconclusive: 33.5 µM [cytotoxic, partial curve, poor fit]

## CCCCCCCCCCCSCC(=O)O
[1]
  Potency: inactive
[11]
  Potency: inconclusive: 68.6 µM [cytotoxic, single point]
[4]
  Potency: inconclusive: 68.6 µM [inhibitor, single point]
[15]
  activation: inconclusive: -9.82% [phenotype inactive]
[5]
  Potency: active: 54.9 µM [inconclusive]
[7]
  Potency: inconclusive: 54.5 µM [inhibitor, partial curve]
